Sequences and labels used below:
B1: TPR 5TU (parent)
chain: GGAUCUUCUCGAUCUAACAAAAAAGACAAAUCUGCCACAAAGCUUGAGAGCAUCUUCGGAUGCAGAGGCGGCAGCCUUCGGUGGCGCGAUAGCGCCAACGUUCUCAACUAUGACACGCAAAACGCGUGCUCCGUUGAAUGGAGUUUAUCAUG

This sample is rich in variants without activity. A value given as a limit tells only on which side of the number the result lay.

The variants in the data set derive from B1. Put plainly: polymerase ribozyme fitness, log enrichment relative to wild type (log ratio); higher = more active; in vitro selection for triplet polymerase activity. A digest of the protocol: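 Each subunit of a heterodimeric triplet polymerase ribozyme was mutagenized into a library by PCR, transcribed, and subjected to one round of in vitro selection, run in triplicate. Libraries were annealed with a biotinylated primer, the partner subunit and triplets, incubated frozen at −7 °C, and extended constructs were gel-excised, captured on streptavidin beads and recovered by RT-PCR. Input and output libraries were sequenced on Illumina, keeping genotypes with ≥10 input reads and ≥1 read per output. Fitness is log base 2 of genotype enrichment divided by wild-type enrichment, from inverse-variance-weighted replicate averages.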
Regarding C35A G58C C75G, the “polymerase ribozyme fitness (log ratio)” value is at most -4.2.

For C35A C76G C96A A113G A120G A150G, the “polymerase ribozyme fitness (log ratio)” value was at most -4.2.

Turning to C36A C85U A89U C96G, the “polymerase ribozyme fitness (log ratio)” value was at most -4.2.

In the case of C36A G62A C69U C95G U148A, the “polymerase ribozyme fitness (log ratio)” value is at most -4.2.

As for C35U A89U C95A G126A A142C, the “polymerase ribozyme fitness (log ratio)” value was at most -4.2.

Consider C35A A91U A97U C99U, for which the “polymerase ribozyme fitness (log ratio)” value is at most -4.2.

As to C35U A41C G81A U102G C108G A110U, the “polymerase ribozyme fitness (log ratio)” value is at most -4.2.

As for C35U U55G A91G A106G G141A, the “polymerase ribozyme fitness (log ratio)” value is at most -4.2.

Turning to C35U C54U C72U G88U A89U U102A A119G G124C G141C, the “polymerase ribozyme fitness (log ratio)” value was at most -4.2.

For the variant C35U C96G, the “polymerase ribozyme fitness (log ratio)” value is -0.818.

C35U C96U: the “polymerase ribozyme fitness (log ratio)” value was -0.126.

On to C35A A60C, for which the “polymerase ribozyme fitness (log ratio)” value was at most -4.2.

With C35U A49G A97G A119C, the “polymerase ribozyme fitness (log ratio)” value is -2.09.

C36A U44A U55A U61A C76A C96A A122C C123A: the “polymerase ribozyme fitness (log ratio)” value was at most -4.2.

C35U C93G C125U A137U: the “polymerase ribozyme fitness (log ratio)” value is at most -4.2.

As for C35G G92U C103G, the “polymerase ribozyme fitness (log ratio)” value was at most -4.2.

Regarding C35U C51G G59A C85U G128U G141A, the “polymerase ribozyme fitness (log ratio)” value was at most -4.2.

Consider C35U G92A C96A, for which the “polymerase ribozyme fitness (log ratio)” value is at most -4.2.

C35U C51U A66C C76U G143U: the “polymerase ribozyme fitness (log ratio)” value was at most -4.2.

With C35A U61A C96U, the “polymerase ribozyme fitness (log ratio)” value was at most -4.2.

C36A G48A: the “polymerase ribozyme fitness (log ratio)” value is at most -4.2.

On to C35A G83U, for which the “polymerase ribozyme fitness (log ratio)” value is at most -4.2.

With C35A G83C, the “polymerase ribozyme fitness (log ratio)” value was -3.93.

For C35G U82G G83A C93G, the “polymerase ribozyme fitness (log ratio)” value is at most -4.2.

As for C35A U146A, the “polymerase ribozyme fitness (log ratio)” value was -3.32.

Consider C35U U55G C76G G133C U135G, for which the “polymerase ribozyme fitness (log ratio)” value is at most -4.2.

Regarding C35A C108A, the “polymerase ribozyme fitness (log ratio)” value is at most -4.2.

In the case of C35U G50A U77A G94A A115C G133C, the “polymerase ribozyme fitness (log ratio)” value was at most -4.2.

On to C36A U82A A98G, for which the “polymerase ribozyme fitness (log ratio)” value was -4.01.

With C35U G83A, the “polymerase ribozyme fitness (log ratio)” value is -0.173.

Take C35U C76U C99U: the “polymerase ribozyme fitness (log ratio)” value is -1.5.

In the case of C35U C54G A66U C79A G80A G83C G84A C96U U101G U148C, the “polymerase ribozyme fitness (log ratio)” value is at most -4.2.

Consider C35U A107C G112U U134G U139C, for which the “polymerase ribozyme fitness (log ratio)” value was at most -4.2.

Take C35U U56C U90G U139G: the “polymerase ribozyme fitness (log ratio)” value was at most -4.2.

In the case of C35A A60C U102G A115C C125U U135A, the “polymerase ribozyme fitness (log ratio)” value is at most -4.2.

C35U A49C U53A G67A C87A A115G G141A C149G: the “polymerase ribozyme fitness (log ratio)” value was at most -4.2.

As for C35A G59A G94C A115G, the “polymerase ribozyme fitness (log ratio)” value is at most -4.2.

Take C36A A66C G81A A91C C93U: the “polymerase ribozyme fitness (log ratio)” value was at most -4.2.

For the variant C36A U45C C95U C114U A119U, the “polymerase ribozyme fitness (log ratio)” value was at most -4.2.

Consider C35G G83C A91C C108U G136U, for which the “polymerase ribozyme fitness (log ratio)” value is at most -4.2.

Regarding C35U G141A, the “polymerase ribozyme fitness (log ratio)” value came to 0.194.

Turning to C35U A115U, the “polymerase ribozyme fitness (log ratio)” value was -1.54.

C35U A47G C99G G152A: the “polymerase ribozyme fitness (log ratio)” value was -3.48.

C36A C43U G81C C85A: the “polymerase ribozyme fitness (log ratio)” value was at most -4.2.

With C35U U56A U61A C63U A64G, the “polymerase ribozyme fitness (log ratio)” value was at most -4.2.

With C36G A47C U55A U82G C87U U146C, the “polymerase ribozyme fitness (log ratio)” value was at most -4.2.

With C36A U55G C99G G124C, the “polymerase ribozyme fitness (log ratio)” value is at most -4.2.

With C35A G126A, the “polymerase ribozyme fitness (log ratio)” value was -3.51.

As to C35U U127G, the “polymerase ribozyme fitness (log ratio)” value is -4.01.

C35G G42A G86U U90G G100A A121G G128A: the “polymerase ribozyme fitness (log ratio)” value is at most -4.2.

For C35U G46U C96U, the “polymerase ribozyme fitness (log ratio)” value is -1.23.

For the variant C36A U55A C75A C87U, the “polymerase ribozyme fitness (log ratio)” value was at most -4.2.

As for C35A U55A C85G G140C, the “polymerase ribozyme fitness (log ratio)” value is at most -4.2.

Regarding C35G U55G U61A C79G C93G A107G, the “polymerase ribozyme fitness (log ratio)” value was at most -4.2.

As to C35A C85U C99U U148C, the “polymerase ribozyme fitness (log ratio)” value was at most -4.2.

In the case of C35U G50C C87U A150C, the “polymerase ribozyme fitness (log ratio)” value is at most -4.2.

Consider C35A C69G C85A C99G A122U C125A U146A U148A, for which the “polymerase ribozyme fitness (log ratio)” value is at most -4.2.

For C35U A52G A60C A121U, the “polymerase ribozyme fitness (log ratio)” value is -3.29.

Take C36A C96U U111G: the “polymerase ribozyme fitness (log ratio)” value is at most -4.2.

In the case of C36A C69A C85U U101G U146C, the “polymerase ribozyme fitness (log ratio)” value was at most -4.2.

As for C35A U77G G83A G117A C118U, the “polymerase ribozyme fitness (log ratio)” value was at most -4.2.

For C35U G136A G143U, the “polymerase ribozyme fitness (log ratio)” value is -3.68.

Take C36A C57G U134G: the “polymerase ribozyme fitness (log ratio)” value is at most -4.2.

For C35A U61A G84A C96U U102G C105U, the “polymerase ribozyme fitness (log ratio)” value is at most -4.2.

In the case of C35G C75G G88A C108U C123G G133U G141A, the “polymerase ribozyme fitness (log ratio)” value is at most -4.2.

In the case of C35G G86A A120C C125U G143C, the “polymerase ribozyme fitness (log ratio)” value is at most -4.2.

As to C36A U56G C85U C93U G94C, the “polymerase ribozyme fitness (log ratio)” value was at most -4.2.

On to C35U A97C A115C G117A G143C, for which the “polymerase ribozyme fitness (log ratio)” value was at most -4.2.

Turning to C35G A89C C96G, the “polymerase ribozyme fitness (log ratio)” value is -4.02.

Regarding C35A G58A G83U G92C G152A, the “polymerase ribozyme fitness (log ratio)” value was at most -4.2.

C35G G83C A89G: the “polymerase ribozyme fitness (log ratio)” value was at most -4.2.

C36G A41U C103G A119C A138G: the “polymerase ribozyme fitness (log ratio)” value is at most -4.2.

For the variant C35A G65U G83C C85A G124A, the “polymerase ribozyme fitness (log ratio)” value is at most -4.2.

For C35A U55A U61A A91G C118U A120G G141C, the “polymerase ribozyme fitness (log ratio)” value is at most -4.2.

With C35A C36A A52G A60C C132A, the “polymerase ribozyme fitness (log ratio)” value was at most -4.2.

With C35U A47C A60U C103A, the “polymerase ribozyme fitness (log ratio)” value is at most -4.2.

With C35A C85G G92A A115C A122U, the “polymerase ribozyme fitness (log ratio)” value is at most -4.2.

With C35A G48A A60C C76U G92A A138U, the “polymerase ribozyme fitness (log ratio)” value is at most -4.2.

For C35U U56C C63U A91U, the “polymerase ribozyme fitness (log ratio)” value was at most -4.2.

In the case of C35A G100A C125G C131G, the “polymerase ribozyme fitness (log ratio)” value is at most -4.2.

On to C35G C51G U56G G70A C76G C85G G133U, for which the “polymerase ribozyme fitness (log ratio)” value was at most -4.2.

Turning to C35U C93U U134A U139G G143A, the “polymerase ribozyme fitness (log ratio)” value is at most -4.2.

For C35G C57U U61A, the “polymerase ribozyme fitness (log ratio)” value is at most -4.2.
